In ChEMBL document CHEMBL5308541, “MAIP: An Open-Source Tool to Enrich High-Throughput Screening Output and Identify Novel, Druglike Molecules with Antimalarial Activity” (ACS Med Chem Lett, 2023):
In all, about 150,000 compounds went through this assay and about 540 (0.36%) showed an effect of 50% or more. The list shows a part of the results.

system: Plasmodium falciparum; test: Primary screen in NF54 nanoGlo assay, in single point, at 2uM, 72h; a lower Z score goes with more inhibition; assay type: functional, Erythrocyte; conditions: timepoint 72 hour

SMILES | % Inhibition [%] | Z score
CCN(CCN1CCCCCC1)C(=O)NCCNc1ccncc1C | -11 | 2.32
COCCOc1ccc(N2C(=O)N[C@](C)(c3ccc(OC)cc3)C2=O)cn1 | -10 | 1.93
CC(c1ccccc1F)N1CCCC(NC(=O)N2CCC(O)C(F)(F)C2)C1=O (stereo not given) | -11 | 1.67
CN1CCN(c2cc(NC[C@H](O)c3ccc(Cl)c(F)c3)ncn2)CC1=O | -2 | 0.45
Cc1nc2n(n1)CCN(C(=O)CCc1c(-c3ccccc3)[nH]c3ccc(F)cc13)C2 | 13 | -2.67
O=C([C@@H]1Cc2cc(Cl)ccc2N1)N1CCC(N2CCC(O)CC2)CC1 | 3 | -0.51
COc1cccc(CNc2nccc3occc23)c1 | 3 | -0.52
CN(CCCN1CCCCCC1)C(=O)c1cccc(-c2cnccc2N)c1 | -6 | 1.01
Cc1nsc(C)c1C(=O)NC1CCC(=O)N(C)C1c1ccnn1C (stereo not given) | -4 | 0.73
Fc1cc2nc(-c3cnc(N4CCOCC4)nc3)[nH]c2cc1Br | -4 | 0.61
CN1CCC2(CC1)CN(c1ncnc3cc[nH]c13)CCO2 | -4 | 0.6
Cc1cc(C)nc(N2CC(Cn3nc(-c4ccncc4)ccc3=O)C2)n1 | -6 | 1.22
C(=Cc1ccc2ccccc2n1)c1ccc(N2CCCCC2)cc1 | -1 | 0.13
O=C(Nc1cnccc1N1CCOCC1)c1ccn(C2CCCC2)n1 | 14 | -2.38
FC1(F)CCN(CCN2C[C@@H]3CN(Cc4ccccc4)C[C@@H]3C2)CC1 | 17 | -3.59
CN1CCN(C[C@H]2CCCN(S(=O)(=O)c3ccc(-c4ccccc4)cc3)C2)CC1 | -5 | 1.04
C#CCOc1ccc(N(C)C(=O)CC2(O)CCCC2)cc1 | -8 | 1.53
CN1C[C@@H](CN2CCCN(C3CCCCC3)CC2)CCC1=O | -5 | 0.77
O=C(Nc1ccc(NCC2CCCC2)cc1)c1cnc2c(cnn2C2CCCC2)c1 | 3 | -0.58
O=C(c1ccc2noc(-c3ccccc3)c2c1)N1CC(Nc2ccncn2)C1 | 6 | -0.98
CC(C)C[C@H](C)N(C(=O)c1nc(N2CCCC2)ncc1Cl)c1ccc2[nH]ccc2c1 | 0 | -0.05
O=C(NC1CNCCC1O)c1cc2c(Cl)cccc2[nH]1 (stereo not given) | -3 | 0.71

SMILES | % Inhibition [%] | Z score
O=C([C@H]1CCCN(c2cnccn2)C1)N1CCc2[nH]c3ccc(Br)cc3c2C1 | 5 | -0.82
O=c1cnnc(NC2CCCCCCCCCCC2)n1C1CCCCCCCCCCC1 | 5 | -1.08
Nc1nc(NC2CCN(Cc3ccc(F)cc3)CC2)cc(-n2cccn2)n1 | -5 | 0.84
CC[C@H]1CCCCN1Cc1c(C)nc2ccc(N(CC)CC)cc2c1O | -3 | 0.5
O=S(=O)(Oc1ccc(Cl)c2cccnc12)N1CCCCC1 | -9 | 1.32
CN1CCN(C[C@H]2CCCN(Cc3ccc(-n4ccnc4)nc3)C2)CC1 | 16 | -2.8
Cc1c[nH]c2ncc(-c3cnc(N4CCC(O)CC4)nc3)cc12 | -7 | 1.48
Nc1nc(NCCO)cc(N2CC(CO)CC(CN3CCCC3)C2)n1 (stereo not given) | 1 | -0.09
COCC1(CNC(=O)C2OCC(=O)N(C3CC3)C2c2cccnc2)CCC1 (stereo not given) | 10 | -2.19
CN(Cc1ccnc2ccccc12)C[C@H]1CCN(c2ccccc2)C1 | -12 | 1.86
COc1ccc2cc(-c3c(-c4ccccc4)ncn3C[C@H](O)CO)ccc2c1 | -7 | 1.44
FC(F)Oc1ccc(NC2CCN(C[C@H]3CCOC3)CC2)nc1 | -11 | 2.13
Cc1nc(N2CCC(N3CCCN(c4ccccc4)CC3)CC2)nc2ccc(F)cc12 | -12 | 2.03
c1cnc(NCc2ccc3occc3c2)nc1 | -2 | 0.33
O=S(=O)(c1cc(C(F)(F)F)ccc1C(F)(F)F)N1CCC(c2c[nH]c3ccc(F)cc23)CC1 | 11 | -1.91
CN1CCN(c2ccc(NCc3c[nH]nc3-c3cccnc3)cn2)CC1 | -15 | 2.56
Cc1nccn1-c1ccc(CNc2cc(C3CC(N)C3)nc(N)n2)cc1 (stereo not given) | -1 | 0.13
Nc1ccncc1-c1cccc(C(=O)NC[C@H]2CCN(C3CCCC3)C2)c1 | -6 | 1.28
O=C(NCC(F)(F)C(F)F)c1cccc(Br)c1F | -3 | 0.67
COc1cc(-c2nc3sccn3c2Nc2cccc(C)c2)ccc1O | -7 | 1.29
CC(C)CN1CCC(CNc2nnc(CN)o2)CC1 | -4 | 0.65
O=C(CCNCc1ccc(-c2ccncc2)cc1F)N1CCCCC1 | -6 | 0.99

SMILES | % Inhibition [%] | Z score
COc1ccc(-c2ccno2)cc1S(=O)(=O)N1CCCN(c2ccncc2C)CC1 | -3 | 0.52
Fc1cncc(F)c1CN1CCC(Oc2cnccn2)CC1 | 1 | -0.19
Cc1nonc1CN1CC[C@@H](N(C)CCO)[C@H]1C | 2 | -0.37
Cc1ccc(N2CCOCC2)cc1NCc1cnc(N2CCN(C)CC2)nc1 | -16 | 2.49
N#Cc1ccnc(N2CC3(CCC3)C2C2CCCO2)n1 (stereo not given) | -7 | 1.22
C#CCN1CCC(NC[C@H]2CCCN(CCOC)C2)CC1 | -15 | 2.51
CCN(C)CC(O)CN1CCC(Oc2cccnc2N2CCCC2)C1 (stereo not given) | -5 | 1.05
CN(C)c1nc2ccc(OCCN3CCOCC3)cc2s1 | -4 | 0.7
Cc1nc(N)cc(N2CCN(CCN3CCCC3)CC2)n1 | -5 | 0.72
CC[C@]1(C(N)=O)CCCN(Cc2c[nH]c3ccccc23)C1 | -2 | 0.43
Nc1nc(N2CCC(n3cc(-c4ccccc4)nn3)CC2)c2cn[nH]c2n1 | -10 | 1.77
Cc1c(-c2cc(C(=O)NC3CCN(c4cnccn4)CC3)n[nH]2)cnn1C | 12 | -2.66
CC(C)(C)C(=O)Nc1ccc(NC(=O)c2ccc3[nH]ccc3c2)cc1Cl | 3 | -0.48
Cc1[nH]nc2ncc(NC(=O)N[C@H]3CCN(c4ccccn4)C3)cc12 | 3 | -0.46
O=C1OCCCN1CCNc1nccc(N2CCC(O)CC2)n1 | 8 | -1.17
CCCc1cc(N2CCN(C3CCN(CC(C)C)CC3)CC2)nc(C)n1 | -4 | 0.7
Nc1nc(NCc2cc(F)c(F)cc2F)c2cn[nH]c2n1 | -9 | 1.63
CN1CCN(CC2(CNC(=O)c3cccc([C@H]4CCCNC4)c3)CC2)CC1 | 2 | -0.52
Cc1cc(CNC2CCN(C)CC2)ccc1Br | 4 | -0.66
Cc1cccc(CN2CCC(NC(=O)c3ccnc(N4CCO[C@@H](C)C4)c3)CC2)c1 | 4 | -0.75
CCN1CCC(Nc2ccnc(NC3CCN(CC)CC3)n2)CC1 | 8 | -1.81
Cc1cc(N2CCCCC2)nc(NCCNC(=O)Cc2c[nH]c3ccccc23)n1 | 3 | -0.57

SMILES | % Inhibition [%] | Z score
FC(F)c1nnc2ccc(NC3CCN(C[C@H]4CCOC4)CC3)nn12 | -4 | 0.73
c1ccc(-c2cnc(N3CCC(c4c[nH]c5ncccc45)CC3)s2)cc1 | -3 | 0.52
c1cc(CNCCCc2nc3ccccc3[nH]2)c2c(c1)OCCO2 | -15 | 2.55
Cc1c(C(=O)N[C@H]2C[C@@H](c3cc(=O)[nH]c(N)n3)C2)[nH]c2ccc(F)cc12 | -1 | 0.18
O=C(NCC1CC1)c1cc2c(OCc3ccc(Cl)cc3)cccc2[nH]1 | 51 | -9
CC(C)c1ccc(C#N)c(NCCCN2CCC[C@H](O)C2)n1 | -2 | 0.51
CN1CCN(C2(CNC(=O)[C@H]3CC34CCNCC4)CCCC2)CC1 | -7 | 1.47
CNc1nc(N2CCN(CC(=O)NC3CCCCC3)CC2)nc2ccccc12 | 80 | -14.07
CC(C)c1noc(C2CCN(Cc3cc(O)c4cccc(F)c4n3)CC2)n1 | -3 | 0.54
COc1ccc2nc3cc(Cl)ccc3c(O)c2c1 | 65 | -9.86
Cc1ccc2nc(CCCNC3CCN(c4cc(C)nc(N)n4)CC3)oc2c1 | 40 | -6.03
CN1CCN(C2COCC2NC2CCN(C(=O)c3ccncc3)CC2)CC1 (stereo not given) | -4 | 0.85
COC[C@H](CO)NCCC(CC(C)(C)C)NC(=O)OC(C)(C)C (stereo not given in full) | -5 | 1.17
O=C(NCCn1cc(-c2ccoc2)cn1)c1cc2ccccc2[nH]1 | -2 | 0.31
COc1ccc2oc(C(C)NC(=O)N3CCOC(c4ccc(F)c(F)c4)C3)c(C)c2c1 (stereo not given) | -4 | 0.71
CCOc1ccc2nc(C)c(CCC(C)=O)c(O)c2c1 | 2 | -0.31
C[C@@H](c1cccc(-c2[nH]nc3ncccc23)c1)N1CCCC1 | -7 | 1.25
CC(C)n1ncnc1-c1cccc(C(=O)N(C)Cc2cc(C3CC3)on2)c1 | -4 | 0.83
COc1cnc(NC(=O)NCC[C@@]2(O)C(=O)Nc3ccccc32)s1 | 1 | -0.24
